Reference: PubChem BioAssay AID1508624 (National Center for Advancing Translational Sciences (NCATS), 2021)
In all, about 48,000 compounds went through this assay and about 120 (0.25%) were called active. Inconclusive results (about 4%) are left out. Calls come from the whole dose curve; as a rule, active = well fitted activation curve with a large enough effect; inconclusive = small, poorly fitted or top-dose-only effect, or another doubt; inactive = no such curve, though single readings can be large or run the other way. This is one part of the list.

Assay: Primary qHTS for Identification of Small Molecule Activators of Huntingtin-Antisense Promoter Activity; note: nearly all actives have a fitted effect of over 55% in size
Conditions: HEK293 HTT-AS promoter firefly luciferase reporter, 24 h; series mostly up to 57.5 µM; activity change, positive = activation: at the top concentration
Summary of the method: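 Quantitative HTS used concentration series of up to 57.5 uM final on HEK293 luciferase reporter cells, 24 h at 37 degrees C. Readout was Dual-Glo firefly luminescence.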

Activity change, positive = activation, inactive:
Cc1c(Cl)cccc1NC(=O)COCc1cc(-c2ccc3c(c2)OCO3)on1 4.78%, CSc1ccc(CCNC(=O)c2ccc(-c3nc(COc4ccccc4)c(C)o3)cc2)cc1 -8.44%, Cc1cccc(N2CCN(CCCNc3ncnc4onc(-c5ccc(Cl)cc5)c34)CC2C)c1 (stereo not given) -5.44%, COc1ccc(CCNC(=O)CCn2c(=O)c3ccccc3n(Cc3cc(C)ccc3C)c2=O)cc1OC -17.9%, CCOc1ccccc1CNC(=O)C1CCN(C(=O)N2CC(CC)Oc3ccc(C)cc32)CC1 (stereo not given) -35.2%, COc1cccc(CNC(=O)C(=O)NCC(c2ccco2)S(=O)(=O)c2cccs2)c1 (stereo not given) -8.53%, CC(C)(C)C(=O)Cn1c(=O)n(-c2ccc(Cl)cc2)c(=O)c2c3c(sc21)CCCC3 -7.35%, O=C(/C=C/c1ccccc1)N1CCN(Cc2cc(=O)n3nc(-c4ccccc4F)sc3n2)CC1 -3.31%, C[C@@H](NCCCc1cccc(C(F)(F)F)c1)c1cccc2ccccc12, COc1ccc(N2CC(NC(=O)/C=C\c3ccccc3)CC2=O)cc1 (stereo not given) -7.58%, O=C(Cn1c(SCCOc2ccccc2)nc2ccccc21)N1CCOCC1 -8.11%, Cc1cc(OCCn2cc(C(=O)c3cccs3)c3ccccc32)ccc1Cl -23.2%, O=C(Nc1ccc2nc(SCC(=O)N3CCOCC3)sc2c1)c1cccc(Cl)c1 -27.3%, Cc1c(C(=O)OCCOc2ccccc2)[nH]c2c1C(=O)CC(c1ccccc1)C2 (stereo not given) -41.4%, CCc1nnc(SCC(=O)Nc2ccccc2Cl)nc1CC -11.3%, CCc1ccc(NCc2cc3cc4c(cc3n(CC(=O)Nc3cccc(OC)c3)c2=O)OCO4)cc1 -21.2%, COCCNC(=O)Cn1nc(C)c2c(C)n(-c3ccc(C)cc3)nc2c1=O -26.6%, CCc1ccc2ncc3c(-c4ccccc4)nn(-c4ccccc4)c3c2c1 -20.2%, CC(C)COc1ccc(C(=O)NCC2(N3CCN(C)CC3)CCCCC2)cc1 -16.1%, CC[N+](C)(C)c1cccc(O)c1 0.257%, COc1cccc(NC(=O)CSc2nnc3scc(-c4ccc(Cl)cc4)n23)c1 -33.1%, COc1ccc(N(C(=O)c2ccc(OC)c(OC)c2)S(=O)(=O)c2ccc(Cl)cc2)cc1 -15.3%, Cc1cc(NS(=O)(=O)c2ccc(NC(=O)c3ccccc3C)cc2)nc(C)n1 -8.8%, Cc1ccc(C)c(NC(=O)CC2NCCNC2=O)c1 (stereo not given) -14.4% [at 11.5 µM, percent change from vehicle, -100% = no light], N#Cc1ccccc1Cn1c(=O)n(CCCC(=O)NCc2ccc3c(c2)OCO3)c(=O)c2sccc21 -21.8%, Cc1ccc(NC(=O)C2CCCN(c3nnc(-n4c(C)ccc4C)s3)C2)c(C)c1 (stereo not given) -4.85%, CCCC(C(=O)NCc1cccc(Cl)c1)N1Cc2ccccc2C1=O (stereo not given) -5.7%, Cc1ccn2c(=O)cc(COc3ccc(NC(=O)COc4ccc(Cl)cc4)cc3)nc2c1 -3.96%, CCCN(CCC)C(=O)Cn1c(=O)n(-c2cccc(OC)c2)c(=O)c2c3c(sc21)CCCC3 -9.53%, Cc1csc2nc(COC(=O)c3cccc(NC(=O)COc4ccc(Cl)cc4)c3)cc(=O)n12 -13.4%, O=C(CCCCn1c(=O)c2ccccc2n(Cc2ccccc2Cl)c1=O)NCCc1ccccc1 -4.81%, Cc1ccc2nc(-c3ccc(Cl)c(NC(=O)COc4cccc(C)c4C)c3)oc2c1 7.48%, CCN1CCOC(=O)C1CC(=O)Nc1cc(C)ccc1OC (stereo not given) -14.1%, Cc1cc2c(cc1NS(=O)(=O)c1ccc(F)cc1)n(C)c(=O)c(=O)n2C 11.2%, CCCc1cc(=O)[nH]c2nnc(SC(C)CC)n12 (stereo not given) 0.0701%, CCOC(=O)c1sc(NC(=O)/C=C/c2ccc(C(C)C)cc2)c(C(=O)OCC)c1C -9.05%, CCc1cccc(C)c1NS(=O)(=O)c1cc2[nH]c(=O)c(=O)[nH]c2cc1C -3.25%, CCN(CC)c1ccc(NC(=O)CCS(=O)(=O)c2cc3c(cc2Cl)NC(=O)CO3)c(C)c1 -3.5%, CNC(=O)C1CCC(Cn2c(=O)c3sccc3n(Cc3ccc(F)cc3)c2=O)CC1 (stereo not given) -9.32%, CC1(C(=O)Nc2cccc(Br)c2)Cc2ccccc2C(=O)O1 (stereo not given) -12.4%, CC(=O)N1CCCc2cc(S(=O)(=O)N3CCC(C(=O)NC4CCC(C)CC4)CC3)ccc21 (stereo not given) -20.1%, CCc1ccc(NC(=O)CSc2nccn2-c2ccc(OC)cc2)cc1 -14.4%, COCCCNC(=O)CCC(=O)N1Cc2cccc(OC)c2Oc2ncccc21 -9.65%, CCCc1cc(=O)oc2c3c(ccc12)OCN(Cc1ccc(OC)cc1)C3 -16.1%, CCn1c(C(=O)NCc2ccccc2C)cc2oc3ccccc3c21 -29.3%, COC(=O)c1ccccc1NC(=O)c1ncoc1-c1ccco1 -8.66%, Cc1nc(-c2cccc(NC(=O)Nc3ccc([N+](=O)[O-])cc3)c2)no1 -60.2%, Cc1ccccc1OCCSc1nc2ccc(NC(=O)c3ccccc3)cc2s1 -35%, NC(N)=NS(=O)(=O)c1ccc(N)cc1 -0.377%, Cc1ccc(CCNC(=O)C(NS(=O)(=O)c2ccc3c(c2)oc(=O)n3C)C(C)C)cc1 (stereo not given) -4.18%, CCOC(=O)CSc1ccc2nnc(CCNS(=O)(=O)c3ccccc3)n2n1 -12.4%, Cc1ccc(N(CC(=O)N2CCN(c3ccccc3F)CC2)S(=O)(=O)c2c(C)noc2C)cc1 -9.56%, O=C(Nc1cccc(C(=O)OCc2cc(=O)n3nc(C4CC4)sc3n2)c1)c1cccc(F)c1 0%, COc1ccc(Cn2ccn(Cc3cccc(C)c3)c(=O)c2=O)cc1 -6.78%, COc1cc2c(cc1OC)C(COc1ccc3c(C)cc(=O)oc3c1)N(C(=O)c1cccc(C)c1)CC2 (stereo not given) 4.56%, CCOc1ccc(-n2c(SCC(=O)NCC3CCCO3)nc3c([nH]c4ccccc43)c2=O)cc1 (stereo not given) -16.9%, O=C(NCCc1ccccc1)c1ccc2c(c1)N(Cc1c(F)cccc1Cl)C(=O)CS2 -33.9%, Cn1c(=O)c(=O)n(C)c2cc(S(=O)(=O)N3CCCC3C(=O)Nc3ccccc3F)ccc21 (stereo not given) 1.35%, COc1ccc(NC(=O)CSc2nncn3c2cc2oc(C)cc23)cc1OC -8.93%, Cc1ccc(N(CC(=O)Nc2cccc(F)c2)S(=O)(=O)c2cccs2)cc1 -27%, NC(=O)CSc1oc(-c2ccco2)nc1S(=O)(=O)c1ccc(Cl)cc1 1.94%, Cc1ccc(NC(=O)c2cc3cc(C)ccc3n2C)cc1 5.29%, CCOC(=O)c1ccc(NC(=O)Cn2c(=O)cc(C)c3c(C)nn(-c4cccc(F)c4)c32)cc1 -4.78%, CCCc1cnc2c(c1SCC(=O)N1CCC(C)CC1)c(=O)n(C)c(=O)n2C -19.3%, CCC1CCCCN1C(=O)Cn1c(=O)oc2cc(S(=O)(=O)N3CCCCC3)ccc21 (stereo not given) -14.2%, O=C(Nc1nc2n(n1)C(c1ccc(F)cc1)C=C(c1ccccc1)N2)c1ccc(Cl)cc1 (stereo not given) -27.7%, Cc1ccc(NC(=O)C(Cc2ccccc2)NS(=O)(=O)c2ccc3c(c2)oc(=O)n3C)cc1F (stereo not given) -2.26%, C[C@@H](O)[C@H]1C(=O)N2C(C(=O)O)=C([C@H]3CCCO3)S[C@H]12 2.13%, CCCN1C(=O)c2[nH]nc(-c3ccccc3O)c2C1c1ccc(OCc2ccccc2)c(OC)c1 (stereo not given) -45.5%, COC(=O)Cn1nc(C)c2c(C)n(-c3ccccc3)nc2c1=O 3.04%, COc1cccc2c1cc1c(=O)n(CC(=O)NC3CCCCC3)nc(C)n12 -9.55%, COc1cc(C(=O)N2CCN(c3ccc(Nc4ccc(C)cc4)nn3)CC2)cc(OC)c1OC 6.92%, Cc1ccc(C(=O)Nc2cccc(OCc3cc(=O)n4c5c(sc4n3)CCCC5)c2)cc1 -1.15%, CN1CCc2c(n(Cc3ccc(C(=O)NO)cc3)c3ccccc23)C1 -13%, CCOc1ccccc1NC(=O)C1CCN(S(=O)(=O)c2ccc3c(c2)CC(C)N3C(C)=O)CC1 (stereo not given) -18.3%, COc1ccc2c(C)cc(SCC(=O)Nc3nsc(-c4ccccc4C)n3)nc2c1 -27.8%, CCOC(=O)c1ccccc1NC(=O)Cn1c(=O)n(-c2cccc(C)c2)c(=O)c2c1c1cc(C)ccc1n2C -11.4%, CCOc1ccc(Cn2c(CNS(=O)(=O)c3ccc(Cl)s3)nc3cccnc32)cc1 -30.6%, COc1cccc(N2CCN(S(=O)(=O)c3ccc(-n4cnnn4)cc3)CC2)c1 -6.57%, COc1cc(C2C(C(=O)Nc3ccccc3C)=C(C)Nc3ncnn32)ccc1OCC(N)=O (stereo not given) -15.6%, O=C(NCC(c1ccc2c(c1)OCO2)N1CCOCC1)c1cccc(Cl)c1 (stereo not given) -12.9%, Nc1ccc(N2CCN(c3ncc(C(F)(F)F)cc3Cl)CC2)c(C(F)(F)F)c1 -37.9%, O=C(NCc1ccc(Cl)cc1)C(=O)NCC(c1cccs1)S(=O)(=O)c1cccs1 (stereo not given) -30.6%, Cc1cc(C)cc(NC(=O)C(=O)NCC(c2cccnc2)N2CCc3ccccc3C2)c1 (stereo not given) -26.1%, Clc1cccc(-n2ncc3c(N4CCC(Cc5ccccc5)CC4)ncnc32)c1 -6.41%, CCCCNC(=O)C1CCC(Cn2c(=O)c3sccc3n(CC(=O)N3CCCC3)c2=O)CC1 (stereo not given) -3.6%, O=C(Nc1cc(C(F)(F)F)ccc1Cl)c1nc2ccccc2nc1N1CCCCC1 16.1%, COC(=O)c1cccnc1-n1c(=O)c2cccnc2n(CC(=O)Nc2ccccc2F)c1=O 4.62%, CCc1ccccc1NC(=O)c1sc2nc3c(cc2c1N)CN(Cc1ccccc1)CC3 -41.8%, CCOC(=O)c1c(C)oc2nc(C)nc(NCc3ccc(OC)cc3OC)c12 -5.63%, O=C(CSc1nncn2c1cc1sccc12)Nc1ccc(Br)cc1F -6.77%, O=C(Cn1c(=O)nc(-c2ccccc2)c2ccccc21)NCc1ccc(Cl)cc1 -20.5%, CCc1ccc(NC(=O)CCn2nc(C)c(S(=O)(=O)N3CCCCC3)c2C)cc1 -27.7%, CCOC(=O)C1(C)C=C(Nc2cccc(C(=O)O)c2)C(=O)N1c1cccc(C(=O)O)c1 (stereo not given) 12.4%, COc1ccc(-c2noc(-c3ccc(N4CCN(c5ccccc5)CC4)c([N+](=O)[O-])c3)n2)cc1OC -8.18%
